The results in this text go back to patent US20220213201A1 (PHARMABCINE, published 2022).

In test [1] the target is T1, human TIE2-his (Sino Biological, 10700-H08H) (human, UniProt Q02763 23-745).
T1 construct: Bought protein; also called hTIE2-his; hTIE2; not shown: his tag
The experiment in a line: ELISA, scFv phage on coated hTIE2-his, HRP anti-M13 detection.

For test [2], the target named is T2, mouse Tie2-his (Sino Biological, 51087-M08H) (mouse, UniProt Q02858 23-743).
T2 construct: Bought protein; also called mTIE2-his; mTie2-his; not shown: his tag
T2 sequence (looked up): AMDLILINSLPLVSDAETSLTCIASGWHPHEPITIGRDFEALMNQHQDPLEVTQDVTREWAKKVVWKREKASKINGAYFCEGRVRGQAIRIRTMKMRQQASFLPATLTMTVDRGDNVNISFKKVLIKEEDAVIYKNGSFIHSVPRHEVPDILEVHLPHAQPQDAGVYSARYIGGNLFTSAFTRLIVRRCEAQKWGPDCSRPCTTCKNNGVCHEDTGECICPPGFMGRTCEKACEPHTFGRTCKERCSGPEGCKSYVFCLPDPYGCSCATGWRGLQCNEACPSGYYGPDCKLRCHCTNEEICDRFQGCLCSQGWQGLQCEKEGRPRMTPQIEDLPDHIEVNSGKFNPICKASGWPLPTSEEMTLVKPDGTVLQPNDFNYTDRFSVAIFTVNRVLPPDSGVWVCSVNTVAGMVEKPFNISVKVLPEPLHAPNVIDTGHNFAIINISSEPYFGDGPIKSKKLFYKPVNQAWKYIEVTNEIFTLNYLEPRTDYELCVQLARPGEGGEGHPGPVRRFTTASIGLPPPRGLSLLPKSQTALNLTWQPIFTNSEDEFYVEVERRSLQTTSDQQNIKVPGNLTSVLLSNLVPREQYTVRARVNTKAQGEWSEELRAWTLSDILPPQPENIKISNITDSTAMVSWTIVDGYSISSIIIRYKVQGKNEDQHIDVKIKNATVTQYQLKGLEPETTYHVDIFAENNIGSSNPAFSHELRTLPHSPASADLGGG
The experiment in a line: ELISA, scFv phage on mouse TIE2 antigen, HRP anti-M13 detection. On the technique in general: In an ELISA, binding on a coated surface is turned into a signal by an enzyme label.

B1: 1A6 monoclonal scFv phage (scFv)
chain: [not shown - about 100 residues]GVDSSMVTGFDHWGQGTLITVSSDIQMTQSPSTLSASVGDRVTITCRASQSISRWLAWYQQKPGKAPKFLIYEASTLESGVPSRFSGSGTGTEFTLTISSLQPDDFATYYCQQYEDYPLTFGQGTRLEIKR
Consider B1, for which the “Human ELISA” value in test [1] was 2.1. The “Mouse ELISA” value in test [2] worked out at 0.1.
